The values that follow come from the FLAb antibody collection.

A short description of the data set: patients with anti-drug antibodies; higher = more immunogenic.

B1: unnamed (protein)
chain 1: QVQLVQSGAEVKKPGASVKVSCKASGYTFTSYSISWVRQAPGQGLEWMGWISVYNGNTNYAQKFQGRVTMTTDTSTSTAYLELRSLRSDDTAVYYCARDPIAAGYWGQGTLVTVSS
chain 2: [about 100 residues not shown]
With B1, the “patients with anti-drug antibodies” value worked out at 0%.

B2: unnamed (protein)
chain 1: EVQLVESGGGLVQPGGSLRLSCAASGFTFSNYWMNWVRQAPGKGLEWVAAINQDGSEKYYVGSVKGRFTISRDNAKNSLYLQMNSLRVEDTAVYYCVRDYYDILTDYYIHYWYFDLWGRGTLVTVSS
chain 2: [about 100 residues not shown]
As to B2, the “patients with anti-drug antibodies” value was 1%.

B3: unnamed (protein)
chain 1: QVQLQESGPGLVKPSGTLSLTCAVSGGSISSSNWWSWVRQPPGKGLEWIGEIYHSGSTNYNPSLKSRVTISVDKSKNQFSLKLSSVTAADTAVYYCARWTGRTDAFDIWGQGTMVTVSS
chain 2: [about 100 residues not shown]THWPLTFGQGTKVEIK
Consider B3, for which the “patients with anti-drug antibodies” value is 5.2%.

B4: unnamed (protein)
chain 1: EVQLVQSGAEVKKSGESLKISCKGSGYSFTSYWIGWVRQMPGKGLEWMGIFYPGDSSTRYSPSFQGQVTISADKSVNTAYLQWSSLKASDTAMYYCARRRNWGNAFDIWGQGTMVTVSS
chain 2: [about 100 residues not shown]
For the protein B4, the “patients with anti-drug antibodies” value is 0%.

B5: unnamed (protein)
chain 1: [about 100 residues not shown]DGSSGWYVPHWFDPWGQGTLVTVSS
chain 2: NFMLTQPHSVSESPGKTVTISCTRSSGSIASNYVQWYQQRPGSSPTTVIYEDNQRPSGVPDRFSGSIDSSSNSASLTISGLKTEDEADYYCQSYDGSNRWMFGGGTKLTVL
For B5, the “patients with anti-drug antibodies” value amounted to 3.5%.

B6: unnamed (protein)
chain 1: QMQLVESGGGVVQPGRSLRLSCTASGFTFSNNGMHWVRQAPGKGLEWVAVIWFDGMNKFYVDSVKGRFTISRDNSKNTLYLEMNSLRAEDTAIYYCAREGDGSGIYYYYGMDVWGQGTTVTVSS
chain 2: [about 100 residues not shown]TFGPGTKVDIK
B6: the “patients with anti-drug antibodies” value was 0%.
